These are yes or no findings as the source states them, for the method shown. Binding seen in cells or lysates may run through a third protein. Where a sequence is shown, tags or fusion partners need not be part of it.
Biological target: T1, PUX4-HA (Arabidopsis thaliana) (UniProt Q8RWU7)
T1 sequence: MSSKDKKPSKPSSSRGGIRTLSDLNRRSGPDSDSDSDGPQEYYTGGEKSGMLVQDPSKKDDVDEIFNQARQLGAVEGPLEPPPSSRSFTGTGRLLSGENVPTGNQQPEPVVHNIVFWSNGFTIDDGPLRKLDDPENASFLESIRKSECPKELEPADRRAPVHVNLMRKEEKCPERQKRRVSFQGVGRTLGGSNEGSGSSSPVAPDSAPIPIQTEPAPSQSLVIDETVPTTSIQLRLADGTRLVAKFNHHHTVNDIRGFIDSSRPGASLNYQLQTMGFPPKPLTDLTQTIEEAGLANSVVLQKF
Assay: co-IP; transient coexpression in N. benthamiana leaves; protein extract immunoprecipitated with anti-HA antibody, immunoblotted with anti-HA and anti-GFP

Amino acid sequences for entries named in this document (tags omitted). Residues count along the entry.
UniProt O22476, residues 24-1196: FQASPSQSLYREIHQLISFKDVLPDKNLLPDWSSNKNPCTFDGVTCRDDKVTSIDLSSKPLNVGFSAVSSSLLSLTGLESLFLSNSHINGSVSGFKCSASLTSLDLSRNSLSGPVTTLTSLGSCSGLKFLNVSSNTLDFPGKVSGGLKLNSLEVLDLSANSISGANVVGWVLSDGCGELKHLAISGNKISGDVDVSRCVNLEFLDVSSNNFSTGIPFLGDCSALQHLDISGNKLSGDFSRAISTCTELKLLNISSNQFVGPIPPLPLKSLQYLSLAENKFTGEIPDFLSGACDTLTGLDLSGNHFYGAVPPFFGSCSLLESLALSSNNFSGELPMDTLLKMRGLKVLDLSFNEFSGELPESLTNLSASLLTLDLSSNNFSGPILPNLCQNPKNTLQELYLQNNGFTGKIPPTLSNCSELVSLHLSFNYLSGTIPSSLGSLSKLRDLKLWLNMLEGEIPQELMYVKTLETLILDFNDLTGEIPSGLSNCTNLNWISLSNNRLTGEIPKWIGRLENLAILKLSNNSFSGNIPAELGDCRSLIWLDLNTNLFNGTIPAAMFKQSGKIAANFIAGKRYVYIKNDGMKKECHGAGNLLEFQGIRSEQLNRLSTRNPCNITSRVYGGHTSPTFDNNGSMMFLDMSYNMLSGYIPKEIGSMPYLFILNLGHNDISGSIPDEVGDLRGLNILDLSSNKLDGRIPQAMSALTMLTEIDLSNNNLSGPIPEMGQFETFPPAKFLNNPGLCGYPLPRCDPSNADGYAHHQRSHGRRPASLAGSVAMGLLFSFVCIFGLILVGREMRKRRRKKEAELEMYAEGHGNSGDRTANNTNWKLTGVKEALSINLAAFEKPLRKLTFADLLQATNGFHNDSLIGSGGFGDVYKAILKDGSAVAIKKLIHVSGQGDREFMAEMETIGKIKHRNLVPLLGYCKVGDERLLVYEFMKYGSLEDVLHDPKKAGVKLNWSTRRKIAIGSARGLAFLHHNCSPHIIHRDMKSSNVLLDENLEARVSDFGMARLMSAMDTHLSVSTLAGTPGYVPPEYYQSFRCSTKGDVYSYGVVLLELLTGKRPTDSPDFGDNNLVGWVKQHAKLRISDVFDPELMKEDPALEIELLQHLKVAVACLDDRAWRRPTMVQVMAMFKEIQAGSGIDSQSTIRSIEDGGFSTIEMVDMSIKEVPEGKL

BRI1-GFP (from UniProt O22476 24-1196)
binding: no binding

— paper PMC7324386
